In all, about 33,000 sequences were measured (“E-score (-0.5 to 0.5)”: median about -0.011, highest 2% from about 0.28 on). The list shows a part of the results.
target: T1, Gcr1 (UniProt P07261); experiment: PBM E-score (8-mer binding enrichment) (E-score (-0.5 to 0.5)); higher = stronger / more preferred TF binding; most listed sequences are background and not binding sites; details: protein concentration: 100 nM; construct: GST-full length
T1 sequence: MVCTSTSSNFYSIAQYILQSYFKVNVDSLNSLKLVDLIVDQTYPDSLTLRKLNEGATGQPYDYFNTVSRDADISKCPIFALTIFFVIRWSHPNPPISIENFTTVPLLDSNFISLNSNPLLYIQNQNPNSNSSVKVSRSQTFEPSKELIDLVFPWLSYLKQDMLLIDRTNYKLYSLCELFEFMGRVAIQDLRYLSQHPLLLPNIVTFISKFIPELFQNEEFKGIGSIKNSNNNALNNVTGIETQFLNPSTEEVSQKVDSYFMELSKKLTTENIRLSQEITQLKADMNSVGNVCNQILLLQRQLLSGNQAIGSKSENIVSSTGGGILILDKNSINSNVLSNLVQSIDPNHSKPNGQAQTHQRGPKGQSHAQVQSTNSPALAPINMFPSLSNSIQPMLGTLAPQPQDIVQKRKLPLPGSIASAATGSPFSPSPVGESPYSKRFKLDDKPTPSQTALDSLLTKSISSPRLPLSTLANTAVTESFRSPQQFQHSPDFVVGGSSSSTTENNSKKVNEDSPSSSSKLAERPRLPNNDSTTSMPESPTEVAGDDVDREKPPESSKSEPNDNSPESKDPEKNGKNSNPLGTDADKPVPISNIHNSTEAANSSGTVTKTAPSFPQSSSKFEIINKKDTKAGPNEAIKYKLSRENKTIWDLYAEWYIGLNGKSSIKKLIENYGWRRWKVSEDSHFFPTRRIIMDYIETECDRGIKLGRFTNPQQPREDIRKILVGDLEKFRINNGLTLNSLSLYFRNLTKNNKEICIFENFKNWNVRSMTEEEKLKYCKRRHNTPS
In short: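 Universal all-10-mer Agilent arrays, fresh or stripped once, were converted to double-stranded form by primer extension. GST-tagged yeast transcription factors from PURExpress in vitro transcription/translation, full-length or DNA-binding domain only, were applied at about 100-200 nM and detected with fluorescent anti-GST. After masliner normalisation, the Universal PBM Analysis Suite scored each ungapped eight-base word together with its reverse complement by E-score.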

Sequence | PBM E-score
ATCAGCTG | 0.197
GATCGTTA | -0.241
CCAATGAC | -0.0459
CGGCCACC | -0.0747
GCATCGAC | -0.0357
TAACCCCA | -0.0703
CATAAAGC | 0.195
GGGTTATA | -0.0602
ATACACAG | 0.115
CGGGTATC | 0.131
GCGGTCGA | 0.0164
TGGGGCAA | 0.0111
AGGAATAC | 0.0815
CTAGAAGA | 0.197
AAGCTCCA | 0.145
ACCGGCCC | -0.297
TTAGGAAA | 0.0493
CATTCCAA | 0.0418
CGCCAGAA | 0.13
ATACGGCG | 0.0898
AATTTCGC | 0.181
ATAGCATC | 0.0848
GATCCGGA | 0.226
ATATTTAG | 0.115
AGTCATGC | -0.201

Sequence | PBM E-score
CCCACGTA | 0.0365
CCGGCCGC | 0.099
CCGTACGA | -0.0864
GAAAATCA | -0.0746
CAGGACAA | 0.0779
CTCTAGGA | -0.114
CTGAAATC | 0.0723
AAAAAAGG | 0.184
AATTGTAT | 0.095
CACTTCCC | 0.0585
ATTTTGGA | 0.282
TGTCAAAA | 0.00985
ACAGTGTC | -0.0941
AGGAAATA | 0.00913
ACACTCAG | -0.129
CTTCACCA | -0.154
GTTGTGTA | -4e-05
ACTGAATC | 0.0927
GAGTCGTA | -0.113
GGCCCGTA | -0.0201
AATTCTAT | 0.0304
CCTTTGCG | -0.123
AGGAATCA | 0.144
AGCCCTGA | -0.228
AGTACTGC | -0.205

Sequence | PBM E-score
ATGTGCTG | -0.038
GTCTGTGA | -0.0354
AGGAACCA | 0.203
CTTGTATA | -0.006
CCACCCCC | -0.156
CAAGAAAG | -0.0416
CCAATCAC | -0.0358
TCTAACAA | 0.0322
TCCCGGCA | -0.0871
CGATGAGA | -0.0556
AGGGTAAC | -0.118
AGATGTAC | -0.164
ATTATCAG | 0.0753
CCTGCAAC | -0.0292
ATACAGGC | 0.223
ATTAAATA | 0.21
GCAGATGA | -0.0166
ACCAAGGC | -0.0138
CAAACCGG | 0.0689
CGCAAACG | 0.145
CGGCGCTA | -0.00295
GTATAGAC | 0.0183
AGCAGGTA | 0.0745
CCTATGTA | -0.183
CGATTCAA | -0.0533

Sequence | PBM E-score
CTTGATCA | -0.0381
CAGACCGA | 0.00453
ACGAATCT | 0.122
GCCACAAA | 0.0996
ACGGTAAC | -0.0407
AAGGTCCC | -0.00274
AGGATATC | -0.0349
ATAGTCAC | -0.204
AGTGTCCG | -0.0321
ATCCGGGA | 0.151
GCTCTGAA | -0.0275
CTCTACAC | -0.0944
AGACGAAC | 0.105
ACCAGGTC | 0.0582
GGGCTCAC | -0.096
CATGTGGA | 0.00355
ATCACACC | -0.00785
AATGTCAA | -0.0693
AGACAACC | -0.0455
CAGTTTTC | 0.0118
AGCCTGAG | -0.0534
AAAACAGG | 0.28
CAGTCAAC | -0.123
ATGCACAG | -0.166
AGGACGTA | -0.146

Sequence | PBM E-score
GGTCGGAA | -0.101
ACTTGCTA | -0.0796
GTAAGTGA | -0.183
CGATATGA | -0.00906
CCCATCGA | -0.0692
CGATACCG | -0.159
AAGTAGGA | 0.017
ACAGGTTC | -0.00159
TATGCAGA | 0.0306
GGGCTCTA | -0.034
AGCAGCCC | 0.2
ACATAAAG | -0.021
CATTAAGA | 0.00605
AATTACTA | 0.149
CATATTAC | 0.146
ACCCCCGT | -0.113
CCTTACGC | -0.188
AATTGCTA | 0.0117
CTCCTCCC | -0.131
ATTCTGGG | 0.144
CCCGCGGA | 0.0135
AAACCAAG | 0.0081
GACAGCTA | -0.113
ATGAGTCG | -0.178
AATGCTGG | -0.12

Sequence | PBM E-score
AGACTCGC | -0.263
ACGGGGCA | -0.0662
GCTGAAAC | 0.134
CATACTCC | -0.0342
AGTTGCTG | 0.223
CGCATAAG | -0.178
AAGATACG | 0.211
GCGAACGA | -0.0288
CTTCTGCA | 0.0351
ATGCGACA | -0.0309
ACACCCTC | 0.0957
GGCCGGCC | -0.0224
AATCCCGG | -0.0573
GGCAGCAA | 0.113
CTTGCGGC | -0.0202
CTCCAGGC | -0.068
TCACACAA | -0.0548
GAATCTGA | 0.0948
AACGCACG | 0.0104
ACAATTTA | 0.0791
AACTCGGA | 0.0328
AGACGTCA | -0.0882
AAGCACAT | -0.0763
CTTTCCAA | 0.117
AATCGTGT | 0.0587

Sequence | PBM E-score
AAGATGTC | -0.0157
AGTCTTAC | -0.291
ACGTCCGA | -0.138
AGCTTGCA | -0.206
AAGTTTGA | 0.131
CACGAGCC | 0.00897
GATCCGAC | -0.175
ACTCGGCT | 0.00557
AATCTTAC | 0.0708
AGTCCATA | 0.0134
CGGCAGCC | 0.382
GCAGACCC | -0.0344
CGTATTCC | 0.24
CATGGTGG | -0.0928
GCGCCTAA | 0.407
ACTAACCA | 0.117
CATAGGAG | 0.11
ACCCGACG | -0.182
AGAGATTA | -0.207
CCGTTGCC | 0.00903
CCCGGCGC | 0.0481
ATCTGAAT | 0.0942
